This is one part of the list.

The subject of one assay is HSkMC. Put plainly: cytotoxicity call (relative viability < 0.9). Particulars: 10 µM.
The next assay relates to HepG2. The experiment in a line: cytotoxicity call (relative viability < 0.9). Particulars: 10 µM.
For another assay, the system named is S. aureus RN4220. Put plainly: growth inhibition call (relative growth <= 0.2). Particulars: 50 µM.

For `COc1ccc(S(=O)(=O)N(C)C[C@H]2OCCCC[C@H](C)Oc3ccc(NC(=O)Nc4c(C)noc4C)cc3C(=O)N([C@@H](C)CO)C[C@H]2C)cc1`, in the assay on HSkMC, the cytotoxicity call was “inactive”. For the same compound, the cytotoxicity call with HepG2 is “active”. Moreover, in the assay on S. aureus RN4220, the growth inhibition call is “inactive”.

As to `C[C@@H]1CCCCO[C@@H](CN(C)C(=O)Nc2ccc(C(F)(F)F)cc2)[C@@H](C)CN([C@H](C)CO)C(=O)c2cc(NC(=O)C3CCCCC3)ccc2O1`, the cytotoxicity call in the assay on HSkMC and in the assay on HepG2 was “inactive” each time. Moreover, the growth inhibition call with S. aureus RN4220 is “inactive”.

As to `C[C@@H]1CN([C@@H](C)CO)C(=O)c2cc(NC(=O)Nc3ccc4c(c3)OCO4)ccc2O[C@@H](C)CCCCO[C@@H]1CN(C)C(=O)c1ccccc1`, the cytotoxicity call in the assay on HSkMC and in the assay on HepG2 was “inactive” in each case. The growth inhibition call with S. aureus RN4220 is “inactive”.

For the compound `CCS(=O)(=O)Nc1ccc2c(c1)C(=O)N(C)[C@H]1CC[C@H](CC(=O)N[C@@H]3CCN(Cc4ccccc4)C3)O[C@@H]1CO2`, the cytotoxicity call in the assay with HSkMC and in the assay on HepG2 was “inactive” each time. Also, the growth inhibition call in the assay on S. aureus RN4220 is “inactive”.

For `C[C@H](CO)N1C[C@H](C)[C@H](CN(C)S(=O)(=O)c2cn(C)cn2)Oc2ccc(NS(=O)(=O)c3ccc(Cl)cc3)cc2CC1=O`, the cytotoxicity call in the assay on HSkMC and with HepG2 was “inactive” throughout. In addition, the growth inhibition call in the assay with S. aureus RN4220 is “inactive”.

Consider `COCC(=O)Nc1ccc2c(c1)C(=O)N(C)C[C@@H](OC)[C@@H](C)CN(Cc1cccc(F)c1)[C@H](C)CO2`, for which the cytotoxicity call in the assay with HSkMC and in the assay on HepG2 was “inactive” throughout. For the same compound, the growth inhibition call with S. aureus RN4220 is “inactive”.

As for `Cc1noc(C)c1S(=O)(=O)Nc1ccc2c(c1)CC(=O)N([C@H](C)CO)C[C@H](C)[C@H](CN(C)S(=O)(=O)c1c(C)noc1C)O2`, the cytotoxicity call in the assay with HSkMC and in the assay with HepG2 was “inactive” throughout. Besides, the growth inhibition call in the assay with S. aureus RN4220 is “inactive”.

For the compound `Cc1ccc(S(=O)(=O)N(C)C[C@@H]2Oc3ccc(NC(=O)CCN4CCOCC4)cc3C(=O)N([C@@H](C)CO)C[C@H]2C)cc1`, the cytotoxicity call in the assay with HSkMC and with HepG2 was “inactive” each time. In addition, the growth inhibition call in the assay with S. aureus RN4220 is “inactive”.

Turning to `C[C@H](CO)N1C[C@H](C)[C@H](CN(C)S(=O)(=O)c2ccc(F)cc2)Oc2ncc(-c3ccncc3)cc2C1=O`, the cytotoxicity call in the assay with HSkMC and in the assay with HepG2 was “inactive” throughout. For the same compound, the growth inhibition call in the assay with S. aureus RN4220 was “inactive”.

For `CC1CCc2cc(F)cc3c(=O)c(C(=O)O)cn1c23` (stereo not given), the cytotoxicity call with HSkMC and with HepG2 was “inactive” each time. The growth inhibition call in the assay with S. aureus RN4220 was “active”.

Take `C[C@@H]1CCCCO[C@@H](CN(C)S(C)(=O)=O)[C@H](C)CN([C@H](C)CO)C(=O)c2cc(N(C)C)ccc2O1`: the cytotoxicity call with HSkMC and in the assay on HepG2 was “inactive” throughout. For the same compound, in the assay on S. aureus RN4220, the growth inhibition call is “inactive”.

On to `COc1ccc(S(=O)(=O)Nc2ccc3c(c2)C(=O)N([C@H](C)CO)C[C@@H](C)[C@H](CN(C)S(C)(=O)=O)O3)cc1`, for which the cytotoxicity call with HSkMC and in the assay on HepG2 was “inactive” in each case. The growth inhibition call with S. aureus RN4220 is “inactive”.

As for `COc1ccc(NC(=O)Nc2ccc3c(c2)C(=O)N([C@H](C)CO)C[C@H](C)[C@H](CN(C)S(=O)(=O)c2ccccc2)OCCCC[C@H](C)O3)cc1`, the cytotoxicity call with HSkMC and with HepG2 was “inactive” each time. Besides, in the assay on S. aureus RN4220, the growth inhibition call was “inactive”.

Regarding `CN(C)Cc1cn(CC[C@H]2CC[C@H](NC(=O)Cc3cccnc3)[C@H](CO)O2)nn1`, the cytotoxicity call in the assay with HSkMC and in the assay with HepG2 was “inactive” in each case. Also, the growth inhibition call in the assay with S. aureus RN4220 was “inactive”.

As to `Cc1noc(C)c1S(=O)(=O)Nc1ccc2c(c1)C(=O)N([C@@H](C)CO)C[C@H](C)[C@@H](CN(C)C(=O)Nc1ccc(F)cc1)OCCCC[C@@H](C)O2`, the cytotoxicity call in the assay on HSkMC and in the assay on HepG2 was “inactive” throughout. For the same compound, the growth inhibition call with S. aureus RN4220 is “inactive”.

Take `Cc1ccc(S(=O)(=O)Nc2ccc3c(c2)C(=O)N([C@@H](C)CO)C[C@H](C)[C@H](CN(C)Cc2ccccc2)OCCCC[C@H](C)O3)cc1`: the cytotoxicity call with HSkMC and in the assay on HepG2 was “inactive” throughout. Also, in the assay with S. aureus RN4220, the growth inhibition call is “inactive”.

Take `C[C@H]1CN([C@@H](C)CO)C(=O)c2cc(NS(=O)(=O)c3cn(C)cn3)ccc2O[C@@H]1CN(C)S(=O)(=O)c1ccc(F)cc1`: the cytotoxicity call in the assay with HSkMC and in the assay with HepG2 was “inactive” in each case. Also, the growth inhibition call in the assay with S. aureus RN4220 was “inactive”.

`O=C(N[C@H]1C=C[C@H](CC(=O)N2CCOCC2)O[C@@H]1CO)c1ccc2c(c1)OCO2`: the cytotoxicity call in the assay on HSkMC and with HepG2 was “inactive” each time. Further, the growth inhibition call in the assay on S. aureus RN4220 is “inactive”.

Consider `C[C@H]1CN([C@@H](C)CO)C(=O)CCCn2nncc2CO[C@H]1CN(C)C(=O)C1CC1`, for which the cytotoxicity call in the assay with HSkMC and with HepG2 was “inactive” throughout. Further, the growth inhibition call in the assay on S. aureus RN4220 is “inactive”.

Consider `CO[C@@H](CN(C)S(=O)(=O)c1ccc(Cl)cc1)[C@@H](C)CN([C@H](C)CO)S(=O)(=O)c1cccc(Cl)c1`, for which the cytotoxicity call in the assay on HSkMC and in the assay with HepG2 was “inactive” each time. The growth inhibition call in the assay with S. aureus RN4220 was “inactive”.

Consider `CC(C)Cc1ccc([C@@H](C)c2nc(-c3cccs3)no2)cc1`, for which the cytotoxicity call in the assay on HSkMC and in the assay with HepG2 was “inactive” throughout. Besides, the growth inhibition call in the assay on S. aureus RN4220 is “inactive”.

On to `O=C(CN1CCOCC1)N[C@@H]1CC[C@@H](CCn2cc(C3CC3)nn2)O[C@@H]1CO`, for which the cytotoxicity call with HSkMC and in the assay with HepG2 was “inactive” throughout. For the same compound, the growth inhibition call with S. aureus RN4220 was “inactive”.

Turning to `C[C@H]1CN([C@@H](C)CO)C(=O)CCCn2nncc2CO[C@H]1CN(C)C(=O)c1ccc(N2CCN(C)CC2)cc1`, the cytotoxicity call in the assay on HSkMC (human skeletal muscle cells) and in the assay on HepG2 was “inactive” in each case. Also, in the assay on S. aureus RN4220, the growth inhibition call was “inactive”.

For `CCOCc1c[nH]c(=O)[nH]c1=O`, the cytotoxicity call in the assay with HSkMC and with HepG2 was “inactive” throughout. Further, in the assay on S. aureus RN4220, the growth inhibition call was “inactive”.

For `CC(C)=CCCC(C)C1CCC2(C)C3=C(CCC12C)C1(C)CCC(O)C(C)(C)C1CC3` (stereo not given), the cytotoxicity call in the assay with HSkMC and with HepG2 was “inactive” in each case. In addition, the growth inhibition call in the assay with S. aureus RN4220 is “inactive”.

The record behind these values is the antibiotic and cytotoxicity screens of Wong et al. (2023).
